Data published in the supplement of paper PMC12632987.
In all, about 2,300 sequences were measured (“median log2 fold change of GCK-ALFA target abundance (FLAG IP / Myc IP barcode read proportion)”: median about 0.095, lowest 2% from about -0.47 on). Some of the results follow.

B1: LC3A_28_765 (protein)
chain: MKIEDEIAKAIEEAKKAKEKGEETVITIKVPAGATQEDIDKVIEGMEKIAEITKDMKSTTIIIDVESGVPQENIDRLAKKGEEIEKKYPNVTVIIALDED
B2: LC3A_28_1290 (protein)
chain: SEIEEEIERAIEEAKEAKAKGEPVVITIKVPSGATQEEIEKVIEGLEEIAEILSDVKDQAIIIDVDSGVKQENIDKLADKAEEIEEKYPNVTVIIALDED
B3: LC3A_28_1267 (protein)
chain: SAIEKAIKEFEKQAEEALKKGEPSLLELEVSGKATQEEVDKINKTLEEQAEKLKDIKGTAILISVDSKLKQENLDKLIDTAEKIEEKYPNITVIVAIEDE
B4: LC3A_55_2008 (protein)
chain: MEVTIIITRNEKTGEILSLEVEVDEDPERLLERLEAAGEELAAELFRLANGRTLDEEEMAEIKERYSAEEVRRAVERLIEVLESEPDVKVSVIEELDEEE
B5: LC3A_3_1412 (protein)
chain: LEERREALLAELRAAGWSEETLAAVEELLEALLARGAEEEAERALELLRAARDLPSERLLEVVEEALRALREEGLSPEEVIALLEELLRVARAEQEIEEL
B6: LC3A_132_281 (protein)
chain: GEEEAEEVIEEIEELVDEAEENIDDDEKVRKLLEELRKKLEEIAKTKSPEVVAAAFEVAADELDRLSRLLAEKGKEELALEADSLAIEAASLADRAKKEI
B7: LC3A_28_1103 (protein)
chain: SALEANLAAALAEVRAAAARGEPVTVTIEVGGDATEEDLARLKAALEEMAAIAADLPSLTVIIDLSGEGAEEKANIIGAHAEELEKRYPNLTVIIALPED
B8: LC3A_3_1413 (protein)
chain: LEEAEAATLAALRAAGASEETLAALRELLALLRARGAEEEARRALELVLAAKDLPSERLLEVLREAIRALTEEGLSPEEVIELLEELLRIARNEQEIEEL
B9: LC3A_free_0_2103 (protein)
chain: SVTVVEVVAISKEKWSEEKAKKLKEAAEKLAKELEEKYGMETEVKLEEIDGRQVLTIKAKKEGMSIDEGLEIADYIADHLEEKAKELGVEVEIYESVYEE
B10: LC3A_28_767 (protein)
chain: MTIEEEVQKAIEEAKEAKERGEEAVITIKVPDGATEEDIEKVIEGLKEIAEITKDMKSTAIIIDVDGGVAQENIDKLMDAAEEIEEKYPNVTVIIALDEE
B11: LC3A_3_1899 (protein)
chain: MEEEVEETLKKLKEAGASEETLKAFKEVAEKLKERGYEEALKTLIEEMEKLLDAPSELLLEFLEEVLEVLETEDLSEEELIERIKEIARLTRNESEIEEL
B12: LC3A_free_8_2478 (protein)
chain: KTQKLVDTATKLLDELEEEVRKKAKELGLDELDILELELEIGATIQEVYDKSDESPEEILKTTEEGLKEIIKVAKEIDEELAKLVEKKSKEILEELKKLL
B13: LC3A_3_1380 (protein)
chain: GEEKLEEARKILEEQGRSEEVTKAALETLKALLEKGYEEAAETLIELLKESEDLSDENLLWFFEEVKRAVTEEDISEEELIKLIKEEFKIAKSAEEIIEL
B14: LC3A_3_1505 (protein)
chain: MEEFIKELREYLKKQGRSEEVIELAEKVLRLLLERGFEEAAKTFYEILKSMKDWSEEVLLWFLEEVLEMLETEEGNEEEIIEKIKEIARIAKSEHEIEEL
B15: LC3A_28_1327 (protein)
chain: SELEEQLEKQRKEALELAEKGEDVLIEVTITPETTLEEAEELMEKLRELVKEVAPKVKVSIVVDVEGGVSQEVIDAIAEKADEIEKEYPNATVIIALDED
B16: LC3A_28_974 (protein)
chain: SKLEKKLEEALKEAKEAAKEGKPTVITIEVSGETNEEDAEKIIKAMKEIAKILKDVKGAAIIIDVEKGVKQEIIDKLLDAGEEIEKEYPNITVIFALEEE
B17: LC3A_free_26_2153 (protein)
chain: DHFIDLVALDKAIEKLEKALKLLEEDPNASPELKELVKKALEELKKETLESLEKAKKLVEEAIKLLEKDKNLPEKTKAELKKLLEEALKLIEENIKIAKE
B18: LC3A_28_1108 (protein)
chain: MKIEEEIEKALEKAKKAAEKGEPEVITLTVKSSYTEEDIEKVIETLKEIAEILKDIKGAAIVIDLDGKIKPEHLQKLADAADEIEKKYPNVTVIIALDEE
B19: LC3A_28_782 (protein)
chain: DKLYKDIEEAIEKAKEAAEKKEPAVITITVTKDATQEEIDKAIEAMYEIAEILKGIKDQAIVIDVEAGVDQEHLDKLMDAAEEIEKKYPDVTVIIALEEE
B20: LC3A_free_26_2143 (protein)
chain: SDFVDLYNIDKALDNLDEAKKLLKELGSKNEELKQLVEKAKENVKKETLESLKKALENLDKAKKLVEEDKSIPEEDKKKLLELLDNAKKNVEATIKIMES
B21: LC3A_free_8_2439 (protein)
chain: SAQELADQIQAILDKTEEEIEKKGKELGLSELDINYAQLEVGEVIQTVIDLRDASAQEIADATIEDMERVEKRAAEIHPELAKIVKDALKEIKALAAKAA
B22: LC3A_132_310 (protein)
chain: AEELVKKLLETAKEALRLAKEDDNAEEEVKKLLEEIRKLMEELAKKVPPELAAEAFEEVMETMLELSRVATEKGWEEVADEAFALAAEAAQLASDARAKL
B23: LC3A_3_1654 (protein)
chain: GEELLEELLAWLREQGRSDEVLAAVREALTALIEKGYYEAAKTFAELLKELAHLPDDILLALANDVLELVKTSDDDEETIKKEIKELARTARSEGEIEEL
B24: LC3A_28_1074 (protein)
chain: SAVEEENEKILKEAKEAKEKGEPAVITIKIDESDTDEDIEKKLETIREVAEILKDVEGAAIIIDLEGEKALSRLDEVADLADELEEKYPNLTVIIALDDE
B25: LC3A_28_1195 (protein)
chain: SLAEETIKKIREQAKKALEEGDGAVIEVNISKELSDEGIDKILETIKEEAAKLADLESVSIIINVESGVSQENIDKIADTGEEIEEKYPNVTVIIALDED
B26: LC3A_132_252 (protein)
chain: SEELLKKALEELKEILDKVVDLLKAGKDPWPAIQELDKKAEEYAKKLSLEETEKLVEESEKYAEELFEKRLDPNNEEARRTLDHIEMLFESVLIEKELES
B27: LC3A_free_46_2389 (protein)
chain: AEGEIHALFSAGDLETIEKVAEESRKAIEEVAEEYGVEVEVKTEIIKNEDGKYELYIDVKIKGEDLETVEKAADEIVERLEEIAKKHGLKLASILSFEET
B28: LC3A_28_820 (protein)
chain: SAVDERIEKFLKEAKEAAEKGEEVTLVLEVTGEDTLEDVEKKAEALKEAAEILKDLKSVGIIVDLTEPISQESLDLLIETGEEVEEKYPNVSVVIALPEE
B29: LC3A_28_728 (protein)
chain: SRLEESIEKALKEAKEAAEKGEEVVIEITVPGDATEEDIEKLIEALEEIAKILSSLKNQTIVINVEGGVAQEHIDKIADKAEEIEKKYPNVTVIIALDEE

target: MAP1LC3A, Q9H492; experiment: median log2 fold change of GCK-ALFA target abundance (FLAG IP / Myc IP barcode read proportion) (log2 ratio); each designed protein is fused to an ALFA-tag nanobody in HEK293 cells to bring the named protein to FLAG-tagged glucokinase (GCK); Myc marks an untargeted standard; higher = target protein stabilised (more abundant); settings: target protein: 3xFLAG-MCP-GCK-ALFA reporter; HEK293 landing pad (RPLP)
Outline: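 The readout is target abundance, the per-binder median log2 ratio of FLAG to Myc barcode read proportions. It came from HEK293 landing-pad cells carrying a recombined ALFA-nanobody-fused binder library, induced with 2 μg mL^−1 doxycycline and transfected with a plasmid for a FLAG-tagged target and a Myc-tagged standard. After 48 h, lysates were immunoprecipitated with anti-FLAG and anti-Myc, and circular RNA barcodes were reverse transcribed, amplified and sequenced. Each barcode needed a proportion of at least 10^−7 in both replicates and each binder at least 3 barcodes per replicate, a pseudocount of 10^−6 was added, and the replicates were pooled.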

Row | Binder | median log2 fold change
1 | B1 | 0.29
2 | B2 | 0.073
3 | B3 | -0.0252
4 | B4 | 0.221
5 | B5 | 0.243
6 | B6 | 0.184
7 | B7 | 0.196
8 | B8 | 0.204
9 | B9 | 0.15
10 | B10 | -0.0931
11 | B11 | 0.259
12 | B12 | 0.0114
13 | B13 | 0.325
14 | B14 | -0.0141
15 | B15 | -0.563
16 | B16 | -0.26
17 | B17 | 0.332
18 | B18 | -0.123
19 | B19 | -0.185
20 | B20 | 0.345
21 | B21 | 0.253
22 | B22 | 0.19
23 | B23 | 0.269
24 | B24 | 0.0473
25 | B25 | 0.229
26 | B26 | -0.196
27 | B27 | 0.158
28 | B28 | 0.139
29 | B29 | 0.198
